# Results from article PMC5515408.
# The other results are listed elsewhere or left out. At the low end of the ranking the order means little.
# Target: MAX:MAX (p21) (UniProt P61244-2)
# Assay: protein-binding microarray (anti-MAX antibody)
# Conditions: PBM: 15 mM Tris-HCl pH 7.5, 100 mM KCl, 0.075% NP40, 7.5 mM beta-mercaptoethanol, 375 ng/ul BSA, 8 ng/ul poly(dA-dT):(dA-dT), 550 ng complex, 60 min, room …; high values mean tight binding; double strand, one strand shown; sequences stand for … in CCGGC…TTAATAGCTAAGATTACTATATCGACG
row,Sequence,binding signal (log2 normalized fluorescence)
1,TGATCGCAGGTA,-0.611
2,TGAACCCTCGTA,0.0153
3,TGAGCGGATGTA,-0.552
4,TGATGGTGAGTA,0.159
5,TGAGTAATAGTA,-1.2
6,TCGATCTTGTTC,-1.23
7,TGACTATATGTA,-0.484
8,TGATCTCTGGTA,-1.24
9,CGACACGTCGTA,2.07
10,TGAGAGAAGGTA,-0.88
11,TGAAAAACGGTA,-0.472
12,TTACACATGGTA,3.16
13,TGACCTGCGGTA,0.226
14,TGACGCCCTGTA,-0.163
15,TGACACGTGACG,3.23
16,TGACCCCGCGTA,0.0878
17,TGACTTCACGTA,0.108
18,TGATCAACAGTA,-0.433
19,TGAATTCTGGTA,-0.697
20,TGAGTCAATGTA,-0.791
21,AGAAACGTGTTA,2.96
22,TGATAGTCGGTA,-1.03
23,TGAGCGTATGTA,0.0171
24,TTACATGTGGAA,3.25
25,TGCCATGCGGTA,3.19

row,Sequence,binding signal (log2 normalized fluorescence)
1,TGATTCAATGTA,-0.647
2,TGAACGCAGGTA,-0.0155
3,GTACACGTGGTA,3.3
4,TGACACGTTGGA,3.03
5,TGACGCAGAGTA,-0.307
6,TGACTGCGCGTA,0.0686
7,TGATCATCCGTA,-0.232
8,TGAAGAAACGTA,-0.628
9,TGAGGACCTGTA,-0.451
10,TGAAGCTGGGTA,-0.831
11,TGCTTCGTGGTA,0.514
12,TGAATCTGGGTA,-1.05
13,TGAGGAATCGTA,-0.974
14,TGAAGCAAGGTA,0.831
15,TGACACGTTGCA,3.2
16,TGAGGAACAGTA,-0.608
17,TGAGGTATCGTA,-0.822
18,TGATAACAAGTA,-0.448
19,TGATTGAATGTA,-0.686
20,TGACGTGCAGTA,1.57
21,TGATGTGATGTA,0.229
22,TGACACGCCGTC,2.56
23,TCACGATGGGGC,2.64
24,TGACCCTTAGTA,-0.676
25,TGATTGTGGGTA,-0.261

row,Sequence,binding signal (log2 normalized fluorescence)
1,TGGGGCGTGGTA,2.78
2,TGACCGCTTGTA,-0.269
3,TGATAACTTGTA,-0.694
4,TGACCCGTTGTG,0.408
5,ATGAGTATTCGC,2.71
6,TGCCACGTGATA,3.13
7,AGCTACGTGGTA,1.88
8,TGACTTGTAGTA,-0.639
9,TGACCCCTCGTA,-0.0393
10,TGACGGGACGTA,-0.212
11,TGAAGGGGTGTA,0.559
12,TGACACGTGTTC,3.35
13,TGAGTCGGCGTA,-0.932
14,TGAGGCTTGGTA,-1.05
15,TGACACGTTCAA,2.53
16,TGAGTCACTGTA,-0.498
17,TGAACGCGGGTA,0.608
18,TGAGACATGGTA,0.82
19,TGAAGTAATGTA,-0.412
20,TGATATACTGTA,-0.836
21,TGACACGTCACA,1.65
22,TGACGGAGCGTA,-0.421
23,TGAACTACTGTA,-0.623
24,TGAGTGGGAGTA,0.00597
25,TGATCAGAAGTA,0.216

row,Sequence,binding signal (log2 normalized fluorescence)
1,TGAAGAGCGGTA,-0.757
2,TGACGCGGTGTA,0.533
3,AAACACGTGGTA,3.01
4,TGAACGGGTGTA,0.199
5,TGACAACGAGTA,0.59
6,TGAACGGCCGTA,-0.823
7,TGACCAAGCGTA,-0.281
8,TGATACGGGGTA,-0.468
9,TGAAGGGTCGTA,-0.732
10,TGACCCCTTGTA,-0.423
11,TGAAATGAAGTA,-0.767
12,TGAGGGGCAGTA,0.631
13,TGACACGTGTGC,3.4
14,TGAACCGTAGTA,-0.824
15,TGAAAATACGTA,-0.721
16,TGATTGTATGTA,-0.473
17,TGAGTTGGTGTA,-0.601
18,TGTATCGTGGTA,1.98
19,TGACTTACAGTA,-0.522
20,TGATGCTTCGTA,-0.0312
21,TGAAAGCGGGTA,-0.427
22,TGAGCCGCTGTA,-0.666
23,TAACGCGTGGTA,3.26
24,CTAGTCTAGAAT,-1.87
25,TGACTAGACGTA,-0.859

row,Sequence,binding signal (log2 normalized fluorescence)
1,TGAAACGGGGTC,0.708
2,TGATTCGCTGTA,-1.01
3,TGATGACGAGTA,-0.276
4,TGACCTAACGTA,-0.26
5,TGATGGGGAGTA,0.478
6,GATCACGTGGTA,3.19
7,TGAAACCACGTA,1.26
8,TGAAAGAATGTA,-0.112
9,TGAGTGTATGTA,0.074
10,TCACCCGTGGTA,2.54
11,TGAGTGCTAGTA,-0.0126
12,TGATTATTTGTA,-0.812
13,TGAAATACGGTA,-0.52
14,TGGTCCGTGGTA,-0.0276
15,TTCGCTCTTTGA,-1.73
16,TGACACATGGTG,2.9
17,TGATATACGGTA,-0.908
18,TGACTCCACGTA,0.671
19,TGAGCGAGGGTA,0.0182
20,AGAGACGTGGTA,1.84
21,TGACCTAGGGTA,-0.796
22,TGAGCGCACGTA,0.494
23,TGAGACTGAGTA,-0.843
24,TGAATAATGGTA,-0.711
25,TGATGCCCTGTA,-0.309

row,Sequence,binding signal (log2 normalized fluorescence)
1,TGTCACGTGGGA,3.2
2,TGACACGGTCTA,0.715
3,TGAGCCCCCGTA,-1.03
4,TGATCCCGCGTA,-0.582
5,TGAGCTTAGGTA,-1.27
6,TGAAACTATGTA,-0.464
7,TGAGTGTAGGTA,-0.311
8,TGAGGTGTTGTA,-0.544
9,TGATTCGTAGTA,-1.09
10,TGAGCTAGTGTA,-0.962
11,TGAGATGGAGTA,-0.522
12,TGATAGCGTGTA,2.05
13,TGAAAGAAAGTA,-0.892
14,TGAAGATGGGTA,-0.502
15,TGATGCGCAGTA,-0.217
16,TGATGTCCGGTA,-0.197
17,TGACCCGAGGTA,0.407
18,TGATACATCGTA,-0.0107
19,TGAACCTCTGTA,-0.609
20,TGAGTTAAGGTA,-0.884
21,TGATGAGGAGTA,-0.42
22,TGAGCTCTCGTA,-0.957
23,TGATACGTGGTA,0.871
24,TGAGCATAGGTA,-0.237
25,TGATCGACAGTA,-0.514

row,Sequence,binding signal (log2 normalized fluorescence)
1,TGACACGCGGTA,3.1
2,TGATCAGGCGTA,0.582
3,TGACTCGTGTTA,2.83
4,TGACTAGCCGTA,-1.17
5,TGAGCGAATGTA,-0.603
6,TGATTCCTAGTA,-1.08
7,TGAGGAGTAGTA,-0.971
8,TGACAAGTGGAG,0.717
9,TGAGGGCGAGTA,-0.462
10,TGACTGTTGGTA,-0.43
11,TGAGAGACAGTA,-0.843
12,TGATGCCCCGTA,-0.267
13,TGAGAAACAGTA,-0.85
14,TGAGGTGTAGTA,-0.642
15,TGAATCTGAGTA,-1.09
16,TGACGATCTGTA,-0.62
17,GGACAGGTGGGA,2.85
18,TGGCACGAGGTA,3.26
19,TGAACCGCAGTA,-0.485
20,TGAGAAAGTGTA,-0.805
21,TGATATTCTGTA,-1.35
22,TGAATAGACGTA,-0.987
23,TGATGGTTGGTA,-0.0272
24,TGACAGGTAGTA,0.00138
25,TGAGTGATAGTA,-0.499
